The values that follow come from the RNAGym collection of RNA variant scans (doi:10.7554/elife.90254).

The labels stand for the following.
B1: LINE1-mini (parent)
chain: GGCAGAGCUCAACACAGCGUGGCAAAGUGGCUGUGGCUAGACUGCC

The source gives no read counts; variants with many changes may rest on few reads.

The variants in the data set derive from B1. As to the kind of experiment: self-cleavage, relative activity (ratio to wild type); higher = more cleavage; in vitro, sequencing; the parent is a self-cleaving ribozyme.
Regarding GGCAAAGCUGAACACAGCGGGGCAAAGAGGCUGUGGCUAGACUGCC [G5A C10G U20G U28A], the self-cleavage was 0.02.

GGCCGAGCUCAAAACAGGGUGGGAAAGUGGCUGUGGCUAGACUCCC [A4C C13A C18G C23G G44C]: the self-cleavage worked out at 0.02.

On to GGCAGAGCUCAACACAGCGUGGUAAAGUGACGGUGUCUAAACUGCA [C23U G30A U32G G36U G40A C46A], for which the self-cleavage stood at 0.02.

On to GGCUGAGCUCCACACGGCGUGGCAAAGGGGCUGUGGCUAGACUGUC [A4U A11C A16G U28G C45U], for which the self-cleavage is 0.01.

Turning to GGCAGAGCUCAACAGAGCUUGGCAAAGUGGCUGUGGCUAAACUGCC [C15G G19U G40A], the self-cleavage was found to be 0.02.

Take GUCAGAGAUCAUGACAGCGUGGCAAAGUGGCUGAGGCUAGACUGCA [G2U C8A A12U C13G U34A C46A]: the self-cleavage is 0.07.

As to GGCAGAACUGAACACAGCGUGUCAAAGUGGCUGUGGCUAGAUUGCC [G7A C10G G22U C42U], the self-cleavage was determined as 0.01.

Regarding GGCAGAGCUGAACACAGCGUGCCAAAUUGGCUGUCGCUAGACUGCC [C10G G22C G27U G35C], the self-cleavage amounted to 0.01.

For GGUAGAGUUCAACACAGAGUGGCAAAGUGGCAGUGGCUAGACUGCC [C3U C8U C18A U32A], the self-cleavage is 0.18.

Consider GGGAGAGCUCAACACAGCGUGGCAAAGUGGCUGUGGAUAGGCUGCC [C3G C37A A41G], for which the self-cleavage is 0.31.

As for GGCAGAGCUCAACACAGCGUCACAAAGUGGCUGUGGCCAGACUGCC [G21C G22A U38C], the self-cleavage was found to be 0.59.

For the variant GGCAGAGCUCAACACAGCAUGGCGAAUUGGCUGUUGCUAGAUUGCC [G19A A24G G27U G35U C42U], the self-cleavage is 0.03.

In the case of GGCAGAGCCCACCACAGCGUGGCAAAUUUGCUGUGGCUAGACUGCC [U9C A12C G27U G29U], the self-cleavage is 0.03.

For GGCAGAGCUCAACGCAGCGUGGCAAAGUGUCUGUGGCGAUACUGCC [A14G G30U U38G G40U], the self-cleavage came to 0.09.

In the case of UGCAGAGCUCAACACAGCGUGCCUAAGUGGCUGUGGAUAGACUGCC [G1U G22C A24U C37A], the self-cleavage turned out to be 0.01.

With GGCAGAGCUCAACACCGUGGGGCAAAGUGGCUGUGGCUAGACUUCC [A16C C18U U20G G44U], the self-cleavage was 0.02.

As to GCCAGAGCUCAACACAGCGUUGCUAAGUGGCUGUGGCUUGACUGCC [G2C G21U A24U A39U], the self-cleavage was 0.28.

Consider GGCAGAGCUCGUCACAGCGUGGCAAAGUGGCUGUGACUAGACUGCC [A11G A12U G36A], for which the self-cleavage amounted to 0.

With GGAAAAGCUCAACACAGCGUGGCAAAGUGGCUGUGGCUAGAGUGCC [C3A G5A C42G], the self-cleavage is 0.11.

On to GGCAGAGCUCAACACAGCGCGGCAAAAUCGCUGUCGCUAUUCAGCC [U20C G27A G29C G35C G40U A41U U43A], for which the self-cleavage was 0.26.

Turning to GGCAGAGCUCAACACAGCGUGGCUAAGUGGCUGUGGCUAGCGGGCC [A24U A41C C42G U43G], the self-cleavage came out at 0.2.

Consider GGCAGAGCUUAACACAGCGUGGCAAAGUGGAUGUGGCUUUACUGCC [C10U C31A A39U G40U], for which the self-cleavage was 0.04.

For the variant GGCAGAGCUCAUAACAGCGUGGCAACGUGGCUGUGGCUAGACUGCC [A12U C13A A26C], the self-cleavage amounted to 0.05.

Regarding GGCAGAGCUCAACACACCGUGGCAAAGUGGCUGUGGAUAGACCGCC [G17C C37A U43C], the self-cleavage worked out at 0.04.

Turning to AGCAGAGCUCAACACAGCGCGGCAAAGUGGCUGUGGCUAGUCUGCC [G1A U20C A41U], the self-cleavage was found to be 0.32.

GGCAGACCUCAACACAGUGUGGCAAAGUGGCUGUGUAUAGACUGCC [G7C C18U G36U C37A]: the self-cleavage was determined as 0.21.

With GACAGAGCUCAACACAGCGUGGCAAAGUGGCUGAGGCCAGACUGCC [G2A U34A U38C], the self-cleavage came out at 0.29.

As for GGCAGAGCGCAACACAGCGUGGCAAAAGGGCUGUGGCUAGACUGCC [U9G G27A U28G], the self-cleavage amounted to 0.1.

In the case of GGCAGAGCUCAACACAGCGUGGCAAAGUGGCUGUGGCUAGAGAGAC [C42G U43A C45A], the self-cleavage stood at 0.02.

Turning to GGCAGAGCUCAACACAGCGUGGCCAAGUGGAUGUGGCAAGUCUGCC [A24C C31A U38A A41U], the self-cleavage was 0.06.

Consider GGCAGAGCUAAGCACAGCGUCGCAUAGUGGCUGGGGCUAGACUGAC [C10A A12G G21C A25U U34G C45A], for which the self-cleavage came to 0.01.

In the case of UGCAUAGCUCAACACAGCGUGGCGAAGUCGCUGUGGCUAGACUGCC [G1U G5U A24G G29C], the self-cleavage was determined as 0.02.

As for GGCAGAGCUUAAGACAGCGUGGCAAAGUGGCUUUGUCUAGACUGCC [C10U C13G G33U G36U], the self-cleavage came to 0.02.

In the case of GGCAGAGCUCAACACAGCGUGGCAAAGCGGCUCAAGCUAGACUGCC [U28C G33C U34A G35A], the self-cleavage came out at 0.1.

For the variant GGCAGAGCUCAACACAGCGUAGCUAAGUGGGUGUGGCUAGACUGCC [G21A A24U C31G], the self-cleavage stood at 0.12.

On to GUCAGAGCUCAGGACAGCGUGGCAAAGUUGCUGUGGCCAGACUGCC [G2U A12G C13G G29U U38C], for which the self-cleavage turned out to be 0.01.

GGCAGAGCUCAUCAAAGCGUGGCAAAGUGGCUGUGGCUAGCCUGCC [A12U C15A A41C]: the self-cleavage was 0.02.

Regarding GGCACAGCACAACACAGCGUUGCAAAGUGGCUUUUGCUAGACUGCC [G5C U9A G21U G33U G35U], the self-cleavage came to 0.03.

On to GGCAGAGCUCGACAGAGCAUGCCAAGGAGGCUGUGGCUAGAGUGCC [A11G C15G G19A G22C A26G U28A C42G], for which the self-cleavage was determined as 0.01.

In the case of GGCAGAGCUCAACACAGCGUGGCAGAGUGGCUGUGGCUAAACUGCU [A25G G40A C46U], the self-cleavage is 0.02.

As for GGGAGAGCUCAACACAGCGUGGGAAAGUGGCUGUGGCUAGAGUGCC [C3G C23G C42G], the self-cleavage amounted to 0.01.

Regarding GGCAAAGCUCCACACAGCGUGGCAAAGUGGCUGUGGCACGACUGCC [G5A A11C U38A A39C], the self-cleavage came to 0.01.

UGCAGAGCUCAACACAGCGUGGCAAAGUGGCUGUGGCUAGAAGGGC [G1U C42A U43G C45G]: the self-cleavage is 0.02.

With GGCAGAGCUCAACACAGCGUGCCCAAGUGGCUGUGGCUAGACAGCC [G22C A24C U43A], the self-cleavage stood at 0.02.

Turning to GGCAGACCUCAACACAGCGUGGCGUAGUGGCUGUGGCUAGACUGCC [G7C A24G A25U], the self-cleavage came to 0.1.

Consider GGCAGAGCUCAACACAGCGUGGCAAAGUGGUUGUGACUAGACUUCC [C31U G36A G44U], for which the self-cleavage was found to be 0.09.

Regarding GUCAGAGCUCAACACAGCGUGGCACAGUGGCUUUGGCUAAACUGCC [G2U A25C G33U G40A], the self-cleavage came out at 0.02.

Turning to GGGAGAGGUCAGAAGAGCGUGGCAAAGUGGCUGUGGCUAGACUGCC [C3G C8G A12G C13A C15G], the self-cleavage was determined as 0.03.

With GGCAGAGUUCAACACAGCGCGGCAAAGUUGCUGUGGCUAGACUGCC [C8U U20C G29U], the self-cleavage was determined as 0.25.

In the case of GGCAGGGCGCAACACAGCGUGGCAAAGUGGCUGUGUCUAGACUGCC [A6G U9G G36U], the self-cleavage was 0.03.

For the variant GACAGAGCUCAAGACAGCGCGGCAAAGUGGCUGUGGCUAGACUGCA [G2A C13G U20C C46A], the self-cleavage was found to be 0.12.

With GACAGAGCUCAACACAGCGUGGCAAAGUGGCUGUGUCUAGACUGGC [G2A G36U C45G], the self-cleavage was found to be 0.21.

As for GGCAGUGCUCAUAACCGCGUGGAAAAGUGGGUGUGGCUAGACUGCC [A6U A12U C13A A16C C23A C31G], the self-cleavage was determined as 0.01.

For GUCAGAGCUCAACGCAGCGUGGCAAAGUGGCUGUGGCUAGUUUGCA [G2U A14G A41U C42U C46A], the self-cleavage came out at 0.

Take GGCAGUGCGCAACACAGCGUGGCAAAGUGGCAGUGGCUAGAGUGCC [A6U U9G U32A C42G]: the self-cleavage came out at 0.02.

In the case of GGCAGAGCUAAACACAGCGUAACAAAGUGGCCGUGGAUAGACUCCC [C10A G21A G22A U32C C37A G44C], the self-cleavage was determined as 0.
